# Assay results reported in publication PMC9911399, “Two distinct binding modes provide the RNA-binding protein RbFox with extraordinary sequence specificity”.
# Numbering of substitutions follows the chain as printed; changes in the protein carry UniProt numbers. The list shows a part of the results.
# B1: UUCACCU (DNA:RNA)
# RNA: GGGAGACCGGAAUUCAGAUUGUCCUUCACCUUUAAAUCCCGUCGUAGCCACCA
# DNA 1: CAATCTGAATTCCGGTCTCCC
# DNA 2: TGGTGGCTACGACGGGATT
# B2: CGGGCGU (DNA:RNA)
# RNA: B1 RNA with U25C, U26G, C27G, A28G, C30G
# DNA 1: CAATCTGAATTCCGGTCTCCC
# DNA 2: TGGTGGCTACGACGGGATT
# B3: ACGUUCC (DNA:RNA)
# RNA: B1 RNA with U25A, U26C, C27G, A28U, C29U, U31C
# DNA 1: CAATCTGAATTCCGGTCTCCC
# DNA 2: TGGTGGCTACGACGGGATT
# B4: AGCGUAC (DNA:RNA)
# RNA: B1 RNA with U25A, U26G, A28G, C29U, C30A, U31C
# DNA 1: CAATCTGAATTCCGGTCTCCC
# DNA 2: TGGTGGCTACGACGGGATT
# B5: UAUGCAA (DNA:RNA)
# RNA: B1 RNA with U26A, C27U, A28G, C30A, U31A
# DNA 1: CAATCTGAATTCCGGTCTCCC
# DNA 2: TGGTGGCTACGACGGGATT
# B6: GGGGUGU (DNA:RNA)
# RNA: B1 RNA with U25G, U26G, C27G, A28G, C29U, C30G
# DNA 1: CAATCTGAATTCCGGTCTCCC
# DNA 2: TGGTGGCTACGACGGGATT
# B7: AACUUAA (DNA:RNA)
# RNA: B1 RNA with U25A, U26A, A28U, C29U, C30A, U31A
# DNA 1: CAATCTGAATTCCGGTCTCCC
# DNA 2: TGGTGGCTACGACGGGATT
# B8: GCUAUUU (DNA:RNA)
# RNA: B1 RNA with U25G, U26C, C27U, C29U, C30U
# DNA 1: CAATCTGAATTCCGGTCTCCC
# DNA 2: TGGTGGCTACGACGGGATT
# B9: CUUCGUG (DNA:RNA)
# RNA: B1 RNA with U25C, C27U, A28C, C29G, C30U, U31G
# DNA 1: CAATCTGAATTCCGGTCTCCC
# DNA 2: TGGTGGCTACGACGGGATT
# B10: GCGAAUU (DNA:RNA)
# RNA: B1 RNA with U25G, U26C, C27G, C29A, C30U
# DNA 1: CAATCTGAATTCCGGTCTCCC
# DNA 2: TGGTGGCTACGACGGGATT
# B11: UGUAUUG (DNA:RNA)
# RNA: B1 RNA with U26G, C27U, C29U, C30U, U31G
# DNA 1: CAATCTGAATTCCGGTCTCCC
# DNA 2: TGGTGGCTACGACGGGATT
# B12: CCAAUUU (DNA:RNA)
# RNA: B1 RNA with U25C, U26C, C27A, C29U, C30U
# DNA 1: CAATCTGAATTCCGGTCTCCC
# DNA 2: TGGTGGCTACGACGGGATT
# B13: CUGUACU (DNA:RNA)
# RNA: B1 RNA with U25C, C27G, A28U, C29A
# DNA 1: CAATCTGAATTCCGGTCTCCC
# DNA 2: TGGTGGCTACGACGGGATT
# B14: AAGGACA (DNA:RNA)
# RNA: B1 RNA with U25A, U26A, C27G, A28G, C29A, U31A
# DNA 1: CAATCTGAATTCCGGTCTCCC
# DNA 2: TGGTGGCTACGACGGGATT
# B15: ACCACAG (DNA:RNA)
# RNA: B1 RNA with U25A, U26C, C30A, U31G
# DNA 1: CAATCTGAATTCCGGTCTCCC
# DNA 2: TGGTGGCTACGACGGGATT
# B16: GGUUGGU (DNA:RNA)
# RNA: B1 RNA with U25G, U26G, C27U, A28U, C29G, C30G
# DNA 1: CAATCTGAATTCCGGTCTCCC
# DNA 2: TGGTGGCTACGACGGGATT
# B17: CUUCUCA (DNA:RNA)
# RNA: B1 RNA with U25C, C27U, A28C, C29U, U31A
# DNA 1: CAATCTGAATTCCGGTCTCCC
# DNA 2: TGGTGGCTACGACGGGATT
# B18: GAGAUUA (DNA:RNA)
# RNA: B1 RNA with U25G, U26A, C27G, C29U, C30U, U31A
# DNA 1: CAATCTGAATTCCGGTCTCCC
# DNA 2: TGGTGGCTACGACGGGATT
# B19: GAAGUUU (DNA:RNA)
# RNA: B1 RNA with U25G, U26A, C27A, A28G, C29U, C30U
# DNA 1: CAATCTGAATTCCGGTCTCCC
# DNA 2: TGGTGGCTACGACGGGATT
# B20: UCAAUCC (DNA:RNA)
# RNA: B1 RNA with U26C, C27A, C29U, U31C
# DNA 1: CAATCTGAATTCCGGTCTCCC
# DNA 2: TGGTGGCTACGACGGGATT
# B21: UUAAAGC (DNA:RNA)
# RNA: B1 RNA with C27A, C29A, C30G, U31C
# DNA 1: CAATCTGAATTCCGGTCTCCC
# DNA 2: TGGTGGCTACGACGGGATT
# B22: CCACUCG (DNA:RNA)
# RNA: B1 RNA with U25C, U26C, C27A, A28C, C29U, U31G
# DNA 1: CAATCTGAATTCCGGTCTCCC
# DNA 2: TGGTGGCTACGACGGGATT
# B23: UAGGAGC (DNA:RNA)
# RNA: B1 RNA with U26A, C27G, A28G, C29A, C30G, U31C
# DNA 1: CAATCTGAATTCCGGTCTCCC
# DNA 2: TGGTGGCTACGACGGGATT
# B24: GAUGUAU (DNA:RNA)
# RNA: B1 RNA with U25G, U26A, C27U, A28G, C29U, C30A
# DNA 1: CAATCTGAATTCCGGTCTCCC
# DNA 2: TGGTGGCTACGACGGGATT
# B25: UAUGCGC (DNA:RNA)
# RNA: B1 RNA with U26A, C27U, A28G, C30G, U31C
# DNA 1: CAATCTGAATTCCGGTCTCCC
# DNA 2: TGGTGGCTACGACGGGATT
# B26: ACAAAGG (DNA:RNA)
# RNA: B1 RNA with U25A, U26C, C27A, C29A, C30G, U31G
# DNA 1: CAATCTGAATTCCGGTCTCCC
# DNA 2: TGGTGGCTACGACGGGATT
# B27: CCGGUCG (DNA:RNA)
# RNA: B1 RNA with U25C, U26C, C27G, A28G, C29U, U31G
# DNA 1: CAATCTGAATTCCGGTCTCCC
# DNA 2: TGGTGGCTACGACGGGATT
# B28: ACAAUGA (DNA:RNA)
# RNA: B1 RNA with U25A, U26C, C27A, C29U, C30G, U31A
# DNA 1: CAATCTGAATTCCGGTCTCCC
# DNA 2: TGGTGGCTACGACGGGATT
# B29: GCUCAUA (DNA:RNA)
# RNA: GGGAGACCGGAAUUCAGAUUGUCCGCUCAUAUUAAAUCCCGUCGUAGCCACCA
# DNA 1: CAATCTGAATTCCGGTCTCCC
# DNA 2: TGGTGGCTACGACGGGATT
# B30: AUUUAAA (DNA:RNA)
# RNA: B29 RNA with G25A, C26U, C28U, U30A
# DNA 1: CAATCTGAATTCCGGTCTCCC
# DNA 2: TGGTGGCTACGACGGGATT
# B31: ACGUCCC (DNA:RNA)
# RNA: B1 RNA with U25A, U26C, C27G, A28U, U31C
# DNA 1: CAATCTGAATTCCGGTCTCCC
# DNA 2: TGGTGGCTACGACGGGATT
# Target: T1, RBFOX1 RRM (Homo sapiens, UniProt Q9NWB1 109-208)
# T1 sequence: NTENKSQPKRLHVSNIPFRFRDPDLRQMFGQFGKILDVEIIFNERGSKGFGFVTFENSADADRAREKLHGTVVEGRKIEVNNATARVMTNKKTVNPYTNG
# Assay: EMSA; HiTS-Eq, 1 nM pool, 10 min; buffer printed only for the single-RNA assays: 10 mM Tris pH 7.5, 150 mM NaCl, 3.4 mM EDTA, 0.001% NP-40, 30 C
# Conditions: tags: His6 N-terminal (pET28a); label: 5' 32P
# In short: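 Purified wild-type or mutant RbFox RRM at increasing concentrations was equilibrated with 1 nM of 5′-radiolabelled RNA carrying 7 randomized nucleotides for 10 min in 50 µL. Unbound RNA was separated by 8% native PAGE and sequenced. Relative association constants came from read-count changes of each RNA species compared with the control reaction, normalised to the cognate motif.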
row,Binder,binding signal
1,B1,0.00158 KA relative to UGCAUGU
2,B2,0.029 KA relative to UGCAUGU
3,B3,0.00949 KA relative to UGCAUGU
4,B4,0.00875 KA relative to UGCAUGU
5,B5,0.0137 KA relative to UGCAUGU
6,B6,0.038 KA relative to UGCAUGU
7,B7,0.00138 KA relative to UGCAUGU
8,B8,0.00716 KA relative to UGCAUGU
9,B9,0.0173 KA relative to UGCAUGU
10,B10,0.00833 KA relative to UGCAUGU
11,B11,0.0262 KA relative to UGCAUGU
12,B12,0.00464 KA relative to UGCAUGU
13,B13,0.00801 KA relative to UGCAUGU
14,B14,0.00245 KA relative to UGCAUGU
15,B15,0.00163 KA relative to UGCAUGU
16,B16,0.00961 KA relative to UGCAUGU

row,Binder,binding signal
1,B17,0.00592 KA relative to UGCAUGU
2,B18,0.00731 KA relative to UGCAUGU
3,B19,0.0129 KA relative to UGCAUGU
4,B20,0.00161 KA relative to UGCAUGU
5,B21,0.00615 KA relative to UGCAUGU
6,B22,0.00163 KA relative to UGCAUGU
7,B23,0.00606 KA relative to UGCAUGU
8,B24,0.0153 KA relative to UGCAUGU
9,B25,0.0181 KA relative to UGCAUGU
10,B26,0.00517 KA relative to UGCAUGU
11,B27,0.00821 KA relative to UGCAUGU
12,B28,0.00366 KA relative to UGCAUGU
13,B29,0.00411 KA relative to UGCAUGU
14,B30,0.00233 KA relative to UGCAUGU
15,B31,0.00396 KA relative to UGCAUGU
